From paper PMC6581563 (Journal of medicinal chemistry, 2019)

What was measured:
rat brain MAGL [1] = molecular target: T1, rat brain MAGL (Rattus norvegicus, UniProt Q8R431); assay: [3H]2-OG hydrolysis assay, cytosolic preparation from rat brain; type: biochemical; details: for Potency towards MAGL at single concentration, hydrolysis of [3H]2-OG: 1 μM
T1 sequence (Q8R431 1-303): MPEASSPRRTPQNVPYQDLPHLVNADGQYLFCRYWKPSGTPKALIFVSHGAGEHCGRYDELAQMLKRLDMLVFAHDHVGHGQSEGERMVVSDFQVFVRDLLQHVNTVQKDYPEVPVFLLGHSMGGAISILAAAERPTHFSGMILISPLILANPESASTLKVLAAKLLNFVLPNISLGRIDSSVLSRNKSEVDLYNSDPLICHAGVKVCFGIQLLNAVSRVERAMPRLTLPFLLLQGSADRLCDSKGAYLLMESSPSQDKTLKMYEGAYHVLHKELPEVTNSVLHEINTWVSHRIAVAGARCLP

rat brain MAGL [2] = molecular target: T1, rat brain MAGL; details: 60 min preincubation phase; cited from earlier work
FAAH = assay: ABPP selectivity assay, FAAH; type: biochemical, rat; details: concentration up to 10 μM
ABHD6 = assay: ABPP selectivity assay, ABHD6; type: biochemical, rat; details: up to a concentration of 10 μM
ABHD12 = assay: ABPP selectivity assay, ABHD12; type: biochemical, rat; details: up to a concentration of 10 μM
CB1 receptor = CB1 receptor (Homo sapiens, UniProt P21554); assay: CB1 agonist and antagonist assays; type: cell-based; details: up to a concentration of 30 μM
CB2 receptor = CB2 receptor (Homo sapiens, UniProt P34972); assay: CB2 agonist and antagonist assays; type: cell-based; details: up to a concentration of 30 μM
[3] = LogD by shake flask method; type: physicochemical; details: n-octanol/PBS
rat brain MAGL [4] = molecular target: T1, rat brain MAGL; assay: Activity-based protein profiling; type: biochemical; details: 1 μM
[5] = Radiometabolite analysis by radioHPLC; details: 30 min post-injection; for Fraction of parent in plasma: mouse plasma
[6] = Ex vivo whole body biodistribution in mice; details: for Initial uptake in heart and lungs: at 1 min
Pgp/Bcrp = assay: PET imaging in wild-type and Pgp/Bcrp knockout mice; details: at 2.5 min for 49, at 11 min for 50
MAGL [7] = molecular target: T2, MAGL (Mus musculus, UniProt O35678); assay: Ex vivo blocking biodistribution with KML29 pretreatment; details: pre-treatment with KML29 3 mg/kg
T2 sequence (O35678 1-303): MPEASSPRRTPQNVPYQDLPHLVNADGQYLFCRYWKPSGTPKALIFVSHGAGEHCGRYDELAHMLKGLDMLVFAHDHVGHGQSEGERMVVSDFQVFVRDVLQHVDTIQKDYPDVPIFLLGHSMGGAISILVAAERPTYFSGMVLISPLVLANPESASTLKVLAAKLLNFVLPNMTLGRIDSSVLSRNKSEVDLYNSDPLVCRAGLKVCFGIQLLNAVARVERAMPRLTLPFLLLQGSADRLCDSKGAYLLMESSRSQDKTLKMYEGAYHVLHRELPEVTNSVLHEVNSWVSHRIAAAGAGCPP

[8] = Dynamic PET imaging in Sprague-Dawley rats; details: for Brain uptake (BBB permeability) in rats: Sprague-Dawley rats, 90 min PET
MAGL [9] = molecular target: T3, MAGL (Rattus norvegicus, UniProt Q8R431); assay: PET blocking study with KML29 pretreatment in rats; type: in vivo, Sprague-Dawley rats; details: KML29 3 mg/kg
T3 sequence (Q8R431 1-303): T1 sequence (Q8R431 1-303)

[10] = cited from earlier work

Chain of UniProt P21554 (P21554 whole entry): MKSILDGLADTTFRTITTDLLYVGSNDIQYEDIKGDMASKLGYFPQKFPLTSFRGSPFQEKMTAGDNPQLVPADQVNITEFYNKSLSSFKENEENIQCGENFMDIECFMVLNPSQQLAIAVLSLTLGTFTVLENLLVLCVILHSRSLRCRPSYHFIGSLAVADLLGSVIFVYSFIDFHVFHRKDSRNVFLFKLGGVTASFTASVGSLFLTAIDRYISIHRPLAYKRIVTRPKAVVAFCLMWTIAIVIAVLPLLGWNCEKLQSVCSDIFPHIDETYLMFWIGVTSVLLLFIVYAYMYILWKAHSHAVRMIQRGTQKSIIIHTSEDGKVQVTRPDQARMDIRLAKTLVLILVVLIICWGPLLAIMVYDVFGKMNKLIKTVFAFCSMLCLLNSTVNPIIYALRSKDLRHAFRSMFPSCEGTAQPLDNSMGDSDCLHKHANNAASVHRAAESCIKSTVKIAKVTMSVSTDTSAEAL
Chain of UniProt P34972 (P34972 whole entry): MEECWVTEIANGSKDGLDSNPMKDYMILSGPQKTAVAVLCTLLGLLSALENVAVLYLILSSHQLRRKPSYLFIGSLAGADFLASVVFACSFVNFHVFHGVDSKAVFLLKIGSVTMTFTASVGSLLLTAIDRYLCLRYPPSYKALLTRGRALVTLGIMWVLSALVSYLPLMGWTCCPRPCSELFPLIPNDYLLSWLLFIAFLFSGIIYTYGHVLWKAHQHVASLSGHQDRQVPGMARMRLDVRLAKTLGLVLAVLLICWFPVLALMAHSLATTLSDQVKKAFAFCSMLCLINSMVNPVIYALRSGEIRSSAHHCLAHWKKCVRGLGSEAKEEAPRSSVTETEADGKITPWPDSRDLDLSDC

## O=C(c1nccs1)N1CCN(C2CN(C(=O)n3nnc4ccccc43)C2)CC1 [Compound 11, (4-(1-(1H-benzo[d][1,2,3]triazole-1-carbonyl)azetidin-3-yl)piperazin-1-yl) (thiazol-2-yl)methanone]
Rat brain MAGL [1]
  IC50: 87.1 ± 12.4 nM

## O=C(Oc1ccc([N+](=O)[O-])cc1)N1CCC(C(O)(c2ccc3c(c2)OCO3)c2ccc3c(c2)OCO3)CC1 [JZL184]
Rat brain MAGL [2]
  Residual activity of rat cerebellar 2-OG hydrolysis: ~ 10%

## O=C(OC(C(F)(F)F)C(F)(F)F)N1CC(N2CCN(C(=O)c3nccs3)CC2)C1 [Compound 8, 1,1,1,3,3,3-hexafluoropropan-2-yl 3-(4-(thiazole-2-carbonyl)piperazin-1-yl)azetidine-1-carboxylate]
Rat brain MAGL [1]
  IC50: 0.88 ± 0.05 nM
Rat brain MAGL [1]; three tested concentrations 0.3, 1 and 3 nM
  Time-dependent inhibition of [3H]2-OG hydrolysis: preincubation-time-dependent inhibition
FAAH
  Inhibition of FAAH in ABPP assay: none of them showed significant inhibition
ABHD6
  Interactions with ABHD6: no significant interactions
ABHD12
  Interactions with ABHD12: no significant interactions
CB1 receptor
  Interactions with CB1 receptor (agonism/antagonism): no significant interactions
CB2 receptor
  Interactions with CB2 receptor (agonism/antagonism): no significant interactions
[3]
  logD: 1.9 ± 0.38

## O=C(c1ccc(N2CCC(F)C2)cc1)N1CC(N2CCN(C(=O)c3nccs3)CC2)C1 (stereo not shown) [Compound 37, (4-(1-(4-(3-fluoropyrrolidin-1-yl)benzoyl)azetidin-3-yl)piperazin-1-yl)(thiazol-2-yl)methanone]
Rat brain MAGL [1]
  Potency towards MAGL at single concentration, hydrolysis of [3H]2-OG: most potent MAGL inhibitors
Rat brain MAGL [1]; 30, 100 and 300 nM
  Preincubation time-dependence of inhibition of [3H]2-OG hydrolysis: no preincubation time-dependent increase in observed inhibition
Rat brain MAGL [1]; 60 min preincubation then 20-fold dilution, 0.5 μM [3H]2-OG
  Jump dilution: recovery of inhibition after 20-fold dilution: no recovery of inhibition
Rat brain MAGL [4]
  Potency towards MAGL at single concentration, ABPP: most potent MAGL inhibitors
FAAH
  Inhibition of FAAH in ABPP assay: none of them showed significant inhibition
ABHD6
  Interactions with ABHD6: no significant interactions
ABHD12
  Interactions with ABHD12: no significant interactions
CB1 receptor
  Interactions with CB1 receptor (agonism/antagonism): no significant interactions
CB2 receptor
  Interactions with CB2 receptor (agonism/antagonism): no significant interactions
[3]
  logD: 2.7 ± 0.04

## [11CH3]Oc1cc(C(=O)N2CC(N3CCN(C(=O)c4nccs4)CC3)C2)ccc1-c1ccc(Cl)c(C(F)(F)F)c1 [Compound 49, (4-(1-(4’-chloro-2-(methoxy-^11C)-3’-(trifluoromethyl)-[1,1’-biphenyl]-4-carbonyl)azetidin-3-yl)piperazin-1-yl)(thiazol-2-yl)methano-ne]
[5]
  Fraction of parent in plasma: 62%
[6]
  Initial uptake in heart and lungs: > 15 % ID/g
  SUV1 min / SUV60 min ratio in blood: 5.1
Pgp/Bcrp
  Brain uptake plateau in Pgp/Bcrp knockout mice: 1.4 SUV
MAGL [7]
  Blocking effect (decrease of uptake) in BAT: 63%
  Blocking effect (decrease of uptake) in adrenal glands: 13%
[8]
  Brain uptake (BBB permeability) in rats: ca. 0.4 SUV

## COc1cc(C(=O)N2CC(N3CCN(C(=O)c4nccs4)CC3)C2)ccc1-c1ccc(Cl)c(C(F)(F)F)c1 [Compound 17, (4-(1-(4’-chloro-2-methoxy-3’-(trifluoromethyl)-[1,1’-biphenyl]-4-carbonyl)azetidin-3-yl)piperazin-1-yl)(thiazol-2-yl)methanone]
Rat brain MAGL [1]
  Potency towards MAGL at single concentration, hydrolysis of [3H]2-OG: most potent MAGL inhibitors
Rat brain MAGL [4]
  Potency towards MAGL at single concentration, ABPP: most potent MAGL inhibitors
FAAH
  Inhibition of FAAH in ABPP assay: none of them showed significant inhibition
ABHD6
  Interactions with ABHD6: no significant interactions
ABHD12
  Interactions with ABHD12: no significant interactions
CB1 receptor
  Interactions with CB1 receptor (agonism/antagonism): no significant interactions
CB2 receptor
  Interactions with CB2 receptor (agonism/antagonism): no significant interactions
[3]
  logD: 3.35 ± 0.5

## O=C(c1nccs1)N1CCN(C2CN([11C](=O)OC(C(F)(F)F)C(F)(F)F)C2)CC1 [Compound 48, 1,1,1,3,3,3-hexafluoropropan-2-yl 3-(4-(thiazole-2-carbonyl)piperazin-1-yl)azetidine-1-carboxylate-^11C]
MAGL [9]
  Reduction of whole brain uptake after KML29 pretreatment, based on AUC: ~ 50%
[5]; mouse brain homogenate
  Fraction of remaining parent in brain homogenate: 96%
[6]; 30 min after injection
  Radioactivity level in liver, adrenal glands, kidney and brown adipose tissue: > 5 % ID/g
[8]; rat, at 3.5 min
  Maximum standard uptake value (SUV) in the whole brain: 2.26 SUV

## O=C(c1ccc(N2CCC([18F])C2)cc1)N1CC(N2CCN(C(=O)c3nccs3)CC2)C1 (stereo not shown) [Compound 50, (4-(1-(4-(3-(fluoro-^18F)pyrrolidin-1-yl)benzoyl)azetidin-3-yl)piperazin-1-yl)(thiazol-2-yl)methanone]
[5]
  Fraction of parent in plasma: 45%
[6]
  Ratio of %ID/g 1 min/60 min in heart: 6.34
  Ratio of %ID/g 1 min/60 min in lungs: 10.38
  Initial uptake in heart and lungs: > 15 % ID/g
  SUV1 min / SUV60 min ratio in blood: 3.5
Pgp/Bcrp
  Brain uptake plateau in Pgp/Bcrp knockout mice: 1.0 SUV
MAGL [7]
  Blocking effect (decrease of uptake) in BAT: 88%
  Blocking effect (decrease of uptake) in adrenal glands: 80%
[8]
  Brain uptake (BBB permeability) in rats: ~0.3 SUV

## O=C(c1ccc(N2CCC(F)CC2)cc1)N1CC(N2CCN(C(=O)c3nccs3)CC2)C1 [Compound 38, (4-(1-(4-(4-fluoropiperidin-1-yl)benzoyl)azetidin-3-yl)piperazin-1-yl)(thiazol-2-yl)methanone]
Rat brain MAGL [1]
  Potency towards MAGL at single concentration, hydrolysis of [3H]2-OG: most potent MAGL inhibitors
Rat brain MAGL [4]
  Potency towards MAGL at single concentration, ABPP: most potent MAGL inhibitors

## O=C(c1nccs1)N1CCN(C2CN(C(=O)n3cncn3)C2)CC1 [Compound 10, (4-(1-(1H-1,2,4-triazole-1-carbonyl)azetidin-3-yl)piperazin-1-yl) (thiazol-2-yl) methanone]
Rat brain MAGL [1]
  IC50: 10 ± 4.2 nM

## CN(C)C(=O)n1nnc(Cc2ccc(-c3ccccc3)cc2)n1 [2,5-regioisomer of LY2183240]
[10]
  cLogP: 4.03
